From paper PMC2900302
Results are given in words; binding and its absence hold for the method and conditions named. Binding seen in cells or lysates may run through a third protein. Some binding calls cover weakened binding; strength is not graded here. Sequences can lack the tags named with a protein.

By UniProt entry, the sequences of proteins in these tests, tags left out.
UniProt O35185: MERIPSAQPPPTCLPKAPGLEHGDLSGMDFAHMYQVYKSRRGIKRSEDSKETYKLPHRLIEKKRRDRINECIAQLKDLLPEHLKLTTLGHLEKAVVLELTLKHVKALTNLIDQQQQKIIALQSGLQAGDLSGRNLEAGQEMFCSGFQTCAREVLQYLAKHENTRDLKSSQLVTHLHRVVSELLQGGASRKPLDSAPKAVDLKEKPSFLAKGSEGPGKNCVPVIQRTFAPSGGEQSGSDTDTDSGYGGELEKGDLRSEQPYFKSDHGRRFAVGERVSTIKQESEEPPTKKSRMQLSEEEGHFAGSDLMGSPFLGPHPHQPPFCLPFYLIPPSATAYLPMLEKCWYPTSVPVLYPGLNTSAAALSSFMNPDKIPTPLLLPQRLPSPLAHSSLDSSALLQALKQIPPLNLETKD

T1: FLAG-tagged Id4 (Inhibitor of DNA binding 4) (UniProt P41139)
T1 sequence: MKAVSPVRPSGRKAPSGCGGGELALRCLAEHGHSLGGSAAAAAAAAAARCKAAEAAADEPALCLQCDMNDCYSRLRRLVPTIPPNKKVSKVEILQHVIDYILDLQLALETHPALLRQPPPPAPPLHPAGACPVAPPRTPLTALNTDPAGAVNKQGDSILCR

T2: recombinant glutathione S-transferase-tagged Id4 (UniProt P41139)
T2 sequence: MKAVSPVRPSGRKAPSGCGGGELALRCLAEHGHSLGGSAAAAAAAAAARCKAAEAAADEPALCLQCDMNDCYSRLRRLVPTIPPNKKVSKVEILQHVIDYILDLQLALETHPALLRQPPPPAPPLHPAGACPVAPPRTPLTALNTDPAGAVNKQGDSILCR


How the values were obtained:
[1] = biological target: T1, FLAG-tagged Id4 (Inhibitor of DNA binding 4); assay: co-IP; Cos7 cells co-transfected with FLAG-Id4 and one HA-tagged bHLH factor; extracts precipitated with anti-FLAG antibody and Protein G sepharose overnight at 4 C, washed with PBS; Western blot with anti-HA (Figure S4A)
[2] = biological target: T1, FLAG-tagged Id4 (Inhibitor of DNA binding 4); assay: co-IP; FLAG-Id4 and HA-Hey2 in 293FT cells, immunoprecipitation and Western blot (Figure 6A)
[3] = biological target: T2, recombinant glutathione S-transferase-tagged Id4; assay: pull-down; GST-Id4 from E. coli crude extract held on glutathione sepharose beads (4 hr, 4 C), incubated with E. coli extract of Flag-Hey2 overnight at 4 C; Western blot with anti-Flag (Figure S4B); only the target purified

| binding [1] | binding [3] | Molecule | binding [2] |
| --- | --- | --- | --- |
| no binding |  | HA-tagged Bhlhe40 (basic helix-loop-helix family member e40) (from UniProt O35185 1-411) |  |
|  | binds | recombinant FLAG-tagged Hey2 (protein, UniProt Q9QUS4 1-339) MKRPCEETTSESDLDETIDVGSENNYPGHATSSVMRSNSPTTTSQIMARKKRRGIIEKRRRDRINNSLSELRRLVPTAFEKQGSAKLEKAEILQMTVDHLKMLQATGGKGYFDAHALATDFMSIGFRECLTEVARYLSSVEGLDPSDPLRVRLVSHLSTCASQREAAVMTSSMAHHHHPLHPHHWAAAFHHLPTALLQPNGLHTSESTPCRLSTSSEVPSAHGSALLTATFAHADSALRMPSGGTVAPCVPPLSTSLLSLSATVHAAAAAATAAAHSFPLSFAGAFPMLPSNAAAAAAVAAATAISPPLSVSAASSPQQTSTGTNNKPYQPWGTEVGAF |  |
| no binding |  | HA-tagged Hey1 (hairy/enhancer-of-split related with YRPW motif 1) (protein, UniProt Q9WV93 1-299) MKRAHPDYSSSDSELDETIEVEKESADENGNLSSALCSMSPTTSSQVLARKRRRGIIEKRRRDRINNSLSELRRLVPSAFEKQGSAKLEKAEILQMTVDHLKMLHTAGGKGYFDAHALAMDYRSLGFRECLAEVARYLSIIEGLDASDPLLVRLVSHLNNYASQREAASGAHGGLGHIPWGSAFGHHPHIAHPLLLPQNGHGNAGTAASPTEPHHQGRLASAHPEAPALRAPPSGGLGPVLPVVTSASKLSPPLLSSVASLSAFPFSFSSFHLLSPSTPTQAANLGKPYRPWGTEIGAF |  |
| no binding |  | HA-tagged Hes1 (protein, UniProt P35428 1-282) MPADIMEKNSSSPVAATPASVNTTPDKPKTASEHRKSSKPIMEKRRRARINESLSQLKTLILDALKKDSSRHSKLEKADILEMTVKHLRNLQRAQMTAALSTDPSVLGKYRAGFSECMNEVTRFLSTCEGVNTEVRTRLLGHLANCMTQINAMTYPGQAHPALQAPPPPPPSGPAGPQHAPFAPPPPPLVPIPGGAAPPPGSAPCKLGSQAGEAAKVFGGFQVVPAPDGQFAFLIPNGAFAHSGPVIPVYTSNSGTSVGPNAVSPSSGSSLTSDSMWRPWRN |  |

| Molecule | binding [1] | binding [3] | binding [2] |
| --- | --- | --- | --- |
| human influenza hemagglutinin-tagged Hey2 (hairy/enhancer-of-split related with YRPW motif 2) (protein, UniProt Q9QUS4 1-339) MKRPCEETTSESDLDETIDVGSENNYPGHATSSVMRSNSPTTTSQIMARKKRRGIIEKRRRDRINNSLSELRRLVPTAFEKQGSAKLEKAEILQMTVDHLKMLQATGGKGYFDAHALATDFMSIGFRECLTEVARYLSSVEGLDPSDPLRVRLVSHLSTCASQREAAVMTSSMAHHHHPLHPHHWAAAFHHLPTALLQPNGLHTSESTPCRLSTSSEVPSAHGSALLTATFAHADSALRMPSGGTVAPCVPPLSTSLLSLSATVHAAAAAATAAAHSFPLSFAGAFPMLPSNAAAAAAVAAATAISPPLSVSAASSPQQTSTGTNNKPYQPWGTEVGAF | binds |  | binds |
